Test results published in article PMC4336329 (PLoS ONE, 2015).
Out of some 310,000 compounds screened, about 2,200 (0.71%) showed an effect of 50% or more. The effect is printed as a negative number. The list shows a part of the results.

target: human ether-à-go-go-related gene (hERG) potassium channel (human, UniProt Q12809); experiment: primary screen, population patch clamp on CHO cells stably expressing hERG
Sequence (Q12809 whole entry, looked up): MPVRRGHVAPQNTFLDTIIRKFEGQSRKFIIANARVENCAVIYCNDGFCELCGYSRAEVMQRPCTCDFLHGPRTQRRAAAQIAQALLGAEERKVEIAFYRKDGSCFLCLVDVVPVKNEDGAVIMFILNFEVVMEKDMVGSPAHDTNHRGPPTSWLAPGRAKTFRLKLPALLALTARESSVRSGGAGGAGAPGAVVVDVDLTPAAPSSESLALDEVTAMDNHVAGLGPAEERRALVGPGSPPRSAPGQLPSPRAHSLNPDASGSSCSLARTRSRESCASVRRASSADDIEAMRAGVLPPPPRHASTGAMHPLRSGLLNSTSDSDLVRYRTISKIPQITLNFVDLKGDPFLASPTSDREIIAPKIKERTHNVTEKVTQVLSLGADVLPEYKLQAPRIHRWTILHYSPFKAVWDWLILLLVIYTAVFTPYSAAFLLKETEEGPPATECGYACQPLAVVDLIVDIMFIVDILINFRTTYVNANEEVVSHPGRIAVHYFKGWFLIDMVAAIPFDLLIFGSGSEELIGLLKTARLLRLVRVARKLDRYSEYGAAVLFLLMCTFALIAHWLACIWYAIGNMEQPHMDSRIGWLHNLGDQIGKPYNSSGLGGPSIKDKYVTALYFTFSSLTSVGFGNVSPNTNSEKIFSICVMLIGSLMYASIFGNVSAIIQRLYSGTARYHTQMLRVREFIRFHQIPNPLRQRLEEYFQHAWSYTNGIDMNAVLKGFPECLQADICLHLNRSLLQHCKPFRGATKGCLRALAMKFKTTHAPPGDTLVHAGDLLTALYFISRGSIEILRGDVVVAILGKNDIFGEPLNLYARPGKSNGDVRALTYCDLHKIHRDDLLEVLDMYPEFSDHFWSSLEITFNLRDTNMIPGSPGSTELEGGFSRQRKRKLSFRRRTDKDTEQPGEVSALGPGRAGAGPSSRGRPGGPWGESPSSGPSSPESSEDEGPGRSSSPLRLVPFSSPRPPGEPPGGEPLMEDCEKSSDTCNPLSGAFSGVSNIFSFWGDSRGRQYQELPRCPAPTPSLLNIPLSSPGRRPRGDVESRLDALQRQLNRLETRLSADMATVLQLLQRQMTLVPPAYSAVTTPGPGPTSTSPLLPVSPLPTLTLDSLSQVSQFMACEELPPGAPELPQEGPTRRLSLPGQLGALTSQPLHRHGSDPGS

Row | Structure (SMILES) | hERG current change (%, negative = inhibition) at 1uM [%]
1 | COC(=O)c1ccccc1NC(=O)Nc1nnc(N2CCC(C)CC2)s1 | 8.89
2 | C#CCNc1nc(CC)nc2c1nnn2Cc1ccccc1F | 8
3 | CCN(CC)CCN=Cc1c(O)n(Cc2ccco2)c(=O)[nH]c1=O | 5.75
4 | COC(=O)C(CCCN1C(=O)c2ccccc2C1=O)(NC(C)=O)c1nn[nH]n1 (stereo not drawn) | 13.3
5 | O=C(CSc1nnc(Cn2nnc(-c3ccccc3)n2)n1-c1ccccc1)Nc1ccccc1 | 11.7
6 | COc1cc(-c2nnc(SCC(=O)N3CCCC3)o2)cc(OC)c1OC | 1.8
7 | Cc1ccc(C)c(NC(=O)CCC(=O)NNC(=O)C(c2ccccc2)c2ccccc2)c1 | 12
8 | CC1=C(C)/C(=N\OS(=O)(=O)c2ccc(C)cc2)C=CC1=O | 13.6
9 | Oc1ccc(Nc2nc(-c3ccc(O)cc3)cs2)cc1 | 17.1
10 | NC(=O)C1CCN(C(=O)c2ccc([N+](=O)[O-])cc2NC(=O)c2cccs2)CC1 | 6.75
11 | COC(=O)COc1ccc2c(-c3ccc(OC)cc3)cc(=O)oc2c1 | -6.49
12 | O=c1[nH]ncc(N2CCCCCC2)c1Cl | 15.7
13 | CCOc1ccc(NC(=O)c2nn(-c3ccc(OC)cc3OC)c(=O)c3ccccc23)cc1 | 9.85
14 | Cc1ccc(-c2noc(-c3cccs3)n2)cc1 | 3.63
15 | CCC(=O)Nc1nnc(S(=O)(=O)N(CC)c2cc(C)cc(C)c2)s1 | 11.5
16 | CCCCN=Cc1c(C)[nH]n(-c2ccccc2)c1=S | 13.8
17 | O=C(Nc1cccnc1)c1ccc2c(c1)C(=O)N(Cc1cccnc1)C2=O | 2.58
18 | COc1cccc(CC2(CO)CCCN(Cc3cn[nH]c3-c3ccc(F)cc3)C2)c1 (stereo not drawn) | 6.39
19 | Clc1ccc(CSc2nnc(Cn3cnc4ccccc43)o2)cc1 | 15.6
20 | COc1ccc(/C=C2\SC(=S)N(CCCC(=O)N3CCCCC3CCO)C2=O)cc1 (stereo not drawn) | 11.8
21 | NC(=O)COC(=O)c1ccc2noc(-c3ccccc3)c2c1 | 11.1
22 | O=[N+]([O-])c1ccc2[nH]c(O)c(N=Nc3ccc(F)cc3)c2c1 | 14.3
23 | CCCn1c(SCC(=O)c2ccc(OC)c(OC)c2)nc2c1c(=O)n(C)c(=O)n2C | 0.518

Row | Structure (SMILES) | hERG current change (%, negative = inhibition) at 1uM [%]
24 | O=C(Nc1cccc(O)c1)N1CCOCC1 | 4.34
25 | COc1ccc(NC(=O)C2CCCN(S(=O)(=O)c3c(C)n[nH]c3C)C2)cc1OC (stereo not drawn) | 11.3
26 | COc1ccc(-c2cnnc(N/N=C/c3ccc(C)o3)n2)cc1 | 1.66
27 | CC(=O)Nc1ccc(S(=O)(=O)Nc2ccccc2C(=O)NCc2cccnc2)cc1 | 12.9
28 | Cc1ccc(Cl)cc1N1CCN(C(=O)c2ccc(CN3CCOCC3)cc2)CC1 | -4.42
29 | Cc1ccc(O)c(C(=O)c2cnc3c(c2)COc2ccc(C)cc2-3)c1 | 13
30 | Cc1nc2sc(C(c3cccs3)N3CCC4(CC3)OCCO4)c(O)n2n1 (stereo not drawn) | 4.48
31 | O=C(CCN1C(=O)c2ccccc2C1=O)OCN1C(=O)c2ccccc2C1=O | 3.52
32 | N#Cc1ccccc1S(=O)(=O)N1CCN(C(=O)CN2CCCC2c2cccs2)CC1 (stereo not drawn) | -3.17
33 | CC(NC(=O)CN(C)CC(=O)Nc1ccccc1Br)c1ccccc1.O=C(O)C(=O)O (stereo not drawn) | 11.5
34 | CC1CCN(c2nc3nonc3nc2N2CCC(C)CC2)CC1 | 1.36
35 | CCC(Sc1nc2ncnc(N)c2[nH]1)C(=O)O (stereo not drawn) | 17
36 | COc1ccc(C2C3(C#N)C(N)=NC(OC)(OC)C23C#N)cc1 (stereo not drawn) | 5.47
37 | Cc1ccccc1-c1nn(-c2ccc(F)cc2F)cc1CNCCCN(C)C | 10.8
38 | CNc1c([N+](=O)[O-])cnn1-c1ccc(C)cc1 | 6.69
39 | COc1ccc([N+](=O)[O-])cc1NC(=O)C(C)Sc1ccccc1 (stereo not drawn) | 5.16
40 | COC(=O)Cn1cc(/C=C2\C(=O)NC(=O)N(c3ccccc3)C2=O)c2ccccc21 | 2.82
41 | CCCn1nnnc1NC(=O)CSc1ccc(Cl)cc1 | 11.7
42 | OCCNc1ncnc2ccc(Br)cc12 | 11.5
43 | Cl.O=C(CNCc1ccccc1)NC1C2CC3CC(C2)CC1C3 (stereo not drawn) | 11.9
44 | CN(Cc1nc(-c2cccs2)no1)CC1COCCO1 (stereo not drawn) | 7.95
45 | Cc1ccc(NC(=O)CN2CCN(Cc3ccccc3)CC2)cc1Cl | 2.3
46 | O=C(COC(=O)c1cc(=O)[nH]c2ccccc12)NCc1ccc(Cl)cc1 | 12.1

Row | Structure (SMILES) | hERG current change (%, negative = inhibition) at 1uM [%]
47 | COc1ccccc1OCC(=O)Nc1cc(Cl)ccc1N1CCCCC1 | 9.89
48 | O=C(O)c1ccc(S(=O)(=O)N2CCC(n3nnc4cc(C(F)(F)F)ccc43)CC2)cc1 | -32.9
49 | O=C(CSc1ccccc1)N1CCN(c2ccccn2)CC1 | 6
50 | CCOC(=O)CSc1nc(-c2ccccc2)nc2c1oc1ccccc12 | 11.1
51 | CCCn1cc(CN2CCC(Cc3ccccc3)(C(=O)OCC)CC2)c(C)n1 | -14
52 | COCc1[nH]nc2c1C(C1C=CCCC1)C(C#N)=C(N)O2 (stereo not drawn) | 0.934
53 | CCOC(=O)C1CCCN(C(=O)Cn2nc(C)n3nc(-c4ccccc4)cc3c2=O)C1 (stereo not drawn) | -0.79
54 | Cc1cc(C)c2c(NC(=O)CCl)nn(C)c2n1 | 15.7
55 | O=C(CCN1C(=O)c2ccccc2C1=O)N1CCN(c2ccccc2)CC1 | -13.4
56 | O=C(Nc1ccc([N+](=O)[O-])cn1)C1CCCCC1 | 6.15
57 | COC(=O)C1=C(C)NC(=S)NC1c1ccc(OCC(=O)N2CCCCC2)c(OC)c1 (stereo not drawn) | 15.7
58 | O=C1CCCCCN1C(=O)c1cccc(C(=O)N2CCCCCC2=O)c1 | 11.1
59 | CCOC(=O)N1CCN(C(=O)c2ccc(CS(=O)Cc3ccccc3Cl)o2)CC1 (stereo not drawn) | 10.5
60 | CCc1ccccc1N1C(=O)C2C3CC(=O)C(c4ccccc43)C2C1=O (stereo not drawn) | 14.2
61 | CN(C)C(=O)/C=C\c1cn(-c2ccccc2)nc1-c1ccc2c(c1)OCCO2 | 10.2
62 | CCOC(=O)C(C)Sc1nnc(CNC(=O)c2ccc(OC)cc2)n1C1CCCCC1 (stereo not drawn) | 12.7
63 | CCNC(=S)Nc1cccc(NC(=O)c2ccccc2O)c1 | 7.53
64 | CCc1nc(SCC(=O)N2CCCCCC2)c2c(=O)n(C)c(=O)n(C)c2n1 | 0.779
65 | O=C(O)C1CSC(c2ccncc2)N1 (stereo not drawn) | 17.4
66 | O=C(CN1CCN(C(=O)C2CCCO2)CC1)Nc1cc(C(F)(F)F)ccc1Cl (stereo not drawn) | -2.84
67 | CSc1ccc(C2c3[nH]c4ccccc4c3CCN2C(=O)c2ccnn2C)cc1 (stereo not drawn) | 8.79
68 | Cc1cccc(N2N=C(C(=O)O)CCC2=O)c1 | 7.57
69 | CCC(=O)Nc1ccc(NC(=O)c2ccco2)cc1 | 10.9

Row | Structure (SMILES) | hERG current change (%, negative = inhibition) at 1uM [%]
70 | COC(=O)N(NC(=O)C(O)(C(C)C)C(C)C)c1ccccc1 | 14.5
71 | O=C1CC(O)(C(F)(F)F)Oc2c1ccc1ccccc21 (stereo not drawn) | 12.7
72 | COc1ccc(C(=O)N2CCCc3ccccc32)cc1Br | 7.06
73 | CCOC(=O)c1c2c(n(C)c1C)C(=O)C(=O)c1ccc(Br)cc1-2 | 12.4
74 | CCOc1ccc(NC(=O)c2ccc(NCC(=O)N3CCCCCC3)cc2)cc1 | 5.7
75 | COc1ccc(OCCn2c(=N)n(CCO)c3ccccc32)cc1.Cl | 3.34
76 | CC(C)c1ccc(C2NC(=O)NC3=C2CCc2ccccc23)cc1 (stereo not drawn) | -7.39
77 | Cc1ccsc1C(=O)C1CCCN(Cc2ccc(O)cc2)C1 (stereo not drawn) | -0.745
78 | COc1ccc(NC(=O)CSc2sc3c(O)cc(=O)[nH]c3c2C#N)c(OC)c1 | 12.2
79 | COc1nc(-c2ccccc2)ccc1-c1noc(C)n1 | 10.8
80 | CCOC(=O)c1c(NC(=O)COC(=O)CNC(=O)c2ccco2)sc(C)c1C | -7.43
81 | Cc1nc2ccccc2c(=O)n1-c1cccc(C(F)(F)F)c1 | -2.22
82 | OC(COc1ccc2c(c1)CCC2)CN1CCN(c2ccccc2F)CC1 (stereo not drawn) | 5.87
83 | C/C(=N\Nc1nc(-c2cc(C)ccc2C)cs1)c1cc2ccccc2oc1=O | 15.1
84 | Cc1cc(=O)n2nc(N3CCCC(C(=O)NCc4ccc5c(c4)OCO5)C3)sc2n1 (stereo not drawn) | -5.95
85 | CCCCN(CC)CCCNC(=O)c1cc2cc3ccc(C)cc3nc2o1 | -10.1
86 | O=C(COC(=O)c1cnccn1)c1ccc(OC(=O)c2ccccc2)cc1 | 10.9
87 | Cc1conc1NC(c1cccs1)c1ccc2cccnc2c1O (stereo not drawn) | 16.1
88 | CCC(CC)C1C(C#N)=C(N)Oc2n[nH]c(C)c21 (stereo not drawn) | 4.08
89 | COC(=O)c1c(-c2c(Cl)cccc2Cl)noc1NC(=O)NN1CCCCC1 | 10.9
90 | COc1cc2cc(Oc3ccc4ccc(=O)oc4c3)c(=O)oc2cc1OC(C)=O | 8.43
